According to PubChem BioAssay AID1508624 (National Center for Advancing Translational Sciences (NCATS), 2021):
In all, about 48,000 compounds went through this assay and about 120 (0.25%) were called active. Inconclusive results, whose numbers are uncertain, are shown with a selection of clear calls. Calls come from the whole dose curve; as a rule, active = well fitted activation curve with a large enough effect; inconclusive = small, poorly fitted or top-dose-only effect, or another doubt; inactive = no such curve, though single readings can be large or run the other way. Potencies of inconclusive entries are doubtful fits and often do not repeat.

Test: Primary qHTS for Identification of Small Molecule Activators of Huntingtin-Antisense Promoter Activity; note: nearly all actives have a fitted effect of over 55% in size
Details: HEK293 HTT-AS promoter firefly luciferase reporter, 24 h; activity change, positive = activation: at 57.5 µM (top of the series), percent change from vehicle, -100% = no light unless noted
Summary of the method: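 Firefly luciferase signal from promoter-reporter HEK293 cells was scaled between vehicle (0%) and zero RLU (-100%). Compounds were tested at final concentrations of up to 57.5 uM over 24 h at 37 degrees C. PTC124 at 50 uM final served as control inhibitor.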
Potency is the fitted concentration of half-maximal effect; tags give direction and shape of the fitted curve.

SMILES | Potency | activity change, positive = activation
CCc1cccc(C)c1NC(=O)Cn1c(=O)n(-c2cccc(C)c2)c(=O)c2c1c1cc(C)ccc1n2C | inconclusive: 0.282 µM [activator, partial curve, poor fit] | 
CCOc1ccc(NCc2cccn2-c2nnc(N3CCC(C(=O)NCc4cccc(OC)c4)CC3)s2)cc1 |  | inactive: -46.5%
COc1ccc(-n2nnc(C(=O)Nc3ccccc3F)c2N)cc1 | inconclusive: 0.355 µM [activator, full curve, poor fit] | 
CCOc1ccc(-c2cc(C(=O)N3CCN(c4ccc(C)cc4)C(C)C3)c3ccccc3n2)cc1 (stereo unspecified) | active: 1.78 µM | 
COCCNC(=O)CSc1nnc(NC(=O)Nc2ccc(C)cc2)s1 | inconclusive: 12.6 µM [activator, partial curve] | 
Cc1cc(C)cc(NC(=O)Nc2cccs2)c1 | inconclusive: 2.51 µM [activator, full curve] | 
CCOc1ccc(-c2cc(C(=O)NCCc3ccccc3)c3c(-c4ccc(C)cc4)[nH]nc3n2)cc1 | inconclusive: 28.2 µM [activator, single point] | 
COc1ccc(-c2oc3ncn4nc(-c5ccccc5Cl)nc4c3c2-c2ccc(OC)cc2)cc1 | inconclusive: 1.26 µM [activator, partial curve, poor fit] | 
CC(CNC(=O)c1ccc2c(c1)nc1n2CCOC1)c1ccccc1 (stereo unspecified) | inconclusive: 5.01 µM [activator, partial curve] | 
Cc1cc2nc(-c3cccc(NC(=O)CSc4ccc(Cl)cc4)c3)oc2cc1C | inconclusive: 1 µM [activator, full curve, poor fit] | 
CC1COC2(CCN(c3nc(=O)c4cc(C(F)(F)F)cc([N+](=O)[O-])c4s3)CC2)O1 (stereo unspecified) | inconclusive: 0.611 µM [activator, full curve] | 
CC(C)c1ccc(Nc2c(-c3ccco3)nc3ccccn23)cc1 | inconclusive: 4.47 µM [activator, full curve] | 
COc1ccc(NC(=O)CN(C)S(=O)(=O)c2ccc3c(c2)CCCN3C(C)=O)cc1Cl |  | inconclusive: 1.06% [activator]
Cc1nnc(SCc2ccccc2Cl)c2cc3occc3n12 | inconclusive: 8.91 µM [activator, partial curve] | 
CCCCN(CC)CCCNC(=O)C1CCN(c2nc3ccc(CC)cc3s2)CC1 |  | inactive: 10.7%
Cc1cccc(N(CC(=O)Nc2cccc(Cl)c2C)S(C)(=O)=O)c1C |  | inactive: 11.9% [at 11.5 µM, percent change from vehicle, -100% = no light]
O=C(NCc1ccccc1)c1cc2ccccc2o1 | inconclusive: 39.8 µM [activator, single point] | 
CCc1cccc(NC(=O)c2ccc3c(=O)n4nc(Nc5ccccc5OC)sc4nc3c2)c1 |  | inactive: -51.3%
Cc1ccc(Nc2cc(-c3ccccc3)nc(C)n2)cc1 | inconclusive: 3.16 µM [activator, full curve] | 
O=C(Nc1cccc(C(=O)N2CCN(c3ccc(F)cc3)CC2)c1)c1nsc2ccccc12 | inconclusive: 0.178 µM [activator, full curve, poor fit] | 
Cc1ccc(-n2nc(CO)c(C(=O)NCCO)n2)cc1 | inconclusive: 17.8 µM [activator, partial curve, poor fit] | 
CCOc1ccc(NC(=O)c2oc3ccccc3c2NC(=O)Cc2ccc(OC)c(OC)c2)cc1 | inconclusive: 1.78 µM [activator, full curve] | 

SMILES | Potency | activity change, positive = activation
CC(=O)Nc1ccc2nc(SCc3ccccc3)sc2c1 | inconclusive: 1.58 µM [activator, full curve, poor fit] | 
COc1ccccc1CNc1nc(-c2ccco2)nn1S(=O)(=O)c1ccc(C)cc1 | inconclusive: 10 µM [activator, partial curve] | 
CCOC(=O)N1CCC(NC(=O)c2cnn(-c3cccc(C)c3)c2C2CCN(C(=O)OC(C)(C)C)CC2)CC1 |  | inactive: 7.44%
O=C(CSCn1nnc2c(=O)[nH]c(Cc3ccc(F)cc3)nc21)Nc1ccccc1 | inconclusive: 14.1 µM [activator, partial curve, poor fit] | 
CCOc1ccc(CNC(=O)C2=Cc3cccc(OC)c3OC2)cc1 | inconclusive: 22.4 µM [activator, single point] | 
Cc1cc(F)ccc1S(=O)(=O)Nc1cc2c(C(=O)O)c(C)oc2c2ccccc12 |  | inactive: -15.9%
COc1cc(NC(=O)c2cc(-c3cccc(OC)c3)n[nH]2)cc(OC)c1 | inconclusive: 31.6 µM [activator, partial curve, poor fit] | 
COc1ccc(CCNc2ncnc3c2nnn3C)cc1 |  | inactive: -23.5%
CCOc1ccc(C2=CC(c3cccc(Br)c3)n3c(nc4ccccc43)N2)cc1Cl (stereo unspecified) | inconclusive: 2 µM [activator, full curve, poor fit] | 
COc1ccc(-c2noc(-c3ccc(NCc4cccnc4)c([N+](=O)[O-])c3)n2)cc1OC |  | inactive: 1.3%
COc1cccc(-n2c(C)nc3c(cnn3-c3ccc(C)c(C)c3)c2=O)c1 |  | inactive: 9.55%
C=CC(=O)Nc1cccc(Sc2nc(Nc3ccc(N4CCN(C)CC4)cc3)ncc2Cl)c1 |  | inactive: -22.9%
COc1ccccc1C(=O)OCc1cc(=O)n2c(C)csc2n1 | active: 11.2 µM | 
Cc1ccc2scc(N3CCCC(C)C3)c(=O)c2c1 (stereo unspecified) | inconclusive: 1 µM [activator, partial curve, poor fit] | 
Cc1nc2nc(CNC(=O)OC(C)(C)C)nn2c(C)c1CCC(=O)NCc1ccccc1Cl |  | inconclusive: -58.2% [activator]
Cc1cc(C)c(S(=O)(=O)NCC(c2ccco2)S(=O)(=O)c2ccccc2)c(C)c1 (stereo unspecified) |  | inactive: -22%
O=C(Cn1c(=O)c2ccccc2n(CC(=O)Nc2ccccc2F)c1=O)NCCc1ccccc1 |  | inactive: -7.41%
COc1cc(CN2CCc3nc(Nc4ccc5c(c4)OCCO5)ncc3C2)cc(OC)c1OC | inconclusive: 1.58 µM [activator, full curve, poor fit] | 
CC1CCN(S(=O)(=O)c2ccc3nc(-c4cccnc4)cc(C(=O)NCCCOC(C)C)c3c2)CC1 |  | inconclusive: -5.4% [activator]
Cc1cccc(OCCn2nnc3sc4c(c3c2=O)CCCC4)c1 | inconclusive: 15.8 µM [activator, partial curve, poor fit] | 
CC(C)c1ccc(NS(=O)(=O)c2ccc3[nH]cc(C(=O)NC4CCCCC4)c(=O)c3c2)cc1 |  | inactive: -2.21%
Cc1cccc(NC(=O)c2sc3cccc(Cl)c3c2Cl)c1 | inconclusive: 11.2 µM [activator, partial curve] | 

SMILES | Potency | activity change, positive = activation
COc1ccc(-c2nc3ccccc3s2)cc1NC(=O)c1ccccc1OC | inconclusive: 15.8 µM [activator, single point] | 
Cc1c(C(=O)Nc2ccc(F)cc2F)nnn1-c1ccccc1Br | inconclusive: 2 µM [activator, single point] | 
Fc1ccc(Nc2ncnc3c2nc2n3CCCC2)cc1 | inconclusive: 6.31 µM [activator, full curve] | 
Cc1c(NC(=O)c2ccccc2)cc(C(C)C)c(O)c1S(=O)(=O)c1ccc(Cl)cc1 | inconclusive: 3.16 µM [activator, full curve] | 
O=C(NCC(c1cccnc1)N1CCN(Cc2ccccc2)CC1)C(=O)Nc1cccc(F)c1 (stereo unspecified) | inconclusive: 17.8 µM [activator, single point] | 
COc1ccc2nc(N3CCN(C(=O)C4CC4)CC3)sc2c1 | inconclusive: 3.55 µM [activator, full curve] | 
O=C(Nc1c(C(=O)c2ccc(F)cc2)oc2ccccc12)c1cc(-c2ccccc2)on1 |  | inconclusive: -20.3% [activator]
CCOc1cccc(-c2nc3ccccc3c(=O)o2)c1 |  | inactive: 12.4%
COc1ccc(-c2nc3sc(CCNC(=O)C(C)(C)C)c(C)n3n2)cc1 |  | inactive: -11.6%
CCOc1ccc2nc(N3CCCC(C(=O)NCCc4ccc(OC)cc4OC)C3)sc2c1 (stereo unspecified) | inconclusive: 3.98 µM [activator, single point] | 
CC(=O)Nc1ccc(NC(=O)c2csnn2)cc1 | inconclusive: 20 µM [activator, partial curve, poor fit] | 
Cc1ccc(NC(=O)c2ncn(-c3ccccc3)n2)cc1Cl | inconclusive: 5.01 µM [activator, partial curve] | 
Cc1ccc(NC(=O)CS(=O)(=O)c2nc(-c3ccc(C)cc3)cn2-c2ccc(C)cc2)cc1 | inconclusive: 1.78 µM [activator, partial curve, poor fit] | 
Cc1ccc(C(=O)Nc2ccc(-c3nc4ccccc4s3)c(O)c2)c(C)c1 | inconclusive: 11.2 µM [activator, partial curve, poor fit] | 
COCCCNC(=O)c1c(NC(=O)c2nc(S(C)(=O)=O)ncc2Cl)sc2c1CCCC2 |  | inactive: 4.11%
COC(=O)c1c(-c2cccs2)csc1NC(=O)c1ccc(Cl)cc1 | inconclusive: 14.1 µM [activator, partial curve, poor fit] | 
COc1ccccc1/C=C/c1nc(C#N)c(N2CCCCCC2)o1 |  | inactive: -1.36%
C=CCc1cccc2cc(C(=O)Nc3cccc(Cl)c3)c(=O)oc12 | inconclusive: 1.58 µM [activator, partial curve, poor fit] | 
CC(C)OCCCNC(=O)c1ccc2c(=O)n(CCc3ccccc3)c(=O)[nH]c2c1 |  | inactive: -0.519%
COc1cccc(CNC(=O)Cn2nc(-c3ccc(C)cc3)ccc2=O)c1 |  | inactive: -1.13%
Cc1csc2nc(COc3ccc(NC(=O)C(C)C)cc3)cc(=O)n12 | inconclusive: 15.8 µM [activator, partial curve, poor fit] | 
COC(=O)c1ccc2c(=O)n(CCCCCC(=O)N3CCN(c4cc(C)ccc4C)CC3)c(=O)[nH]c2c1 |  | inconclusive: 26% [activator]
